# Data published in the supplement of paper PMC12217912.
# The other results are listed elsewhere or left out. Sequences were assembled here from the parent chain. Inactive controls read about 0.05.
# B1: TEV protease; numbered along this chain (parent)
# chain: MGESLFKGPRDYNPISSSICHLTNESDGHTTSLYGIGFGPFIITNKHLFRRNNGTLVVQSLHGVFKVKDTTTLQQHLVDGRDMIIIRMPKDFPPFPQKLKFREPQREERICLVTTNFQTKSMSSMVSDTSCTFPSGDGIFWKHWIQTKDGQCGSPLVSTRDGFIVGIHSASNFTNTNNYFTSVPKNFMELLTNQEAQQWVSGWRLNADSVLWGGHKVFMVKPEEPFQPVKEATQL
# Variants of: B1
# Experiment: raw area under fraction-flipped curve 0-4 h after induction (AUC4h, not background-subtracted), DNA-recorder readout of cleavage of the substrate (dimensionless); higher = more cleavage of the substrate by the protease variant
# Conditions: temperature: 34 °C; time window: 0-4 h after rhamnose induction
# 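Note: Bxb1 expression induced with 0.2% (w/v) L-rhamnose at OD600 near 0.5, cultures sampled hourly, flipped fraction per protease–substrate barcode pair counted by paired-end Illumina sequencing.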
Variant,area with substrate ENLYFQC,area with substrate ENLYFQG,area with substrate ENLYFQI,area with substrate ENLYFQK,area with substrate ENLYFQP,area with substrate ENLYFQR,area with substrate ENLYFQS,area with substrate ENLYFQT,area with substrate ENLYFQW,area with substrate ENLYFQD,area with substrate ENLYFQH,area with substrate ENLYFQM,area with substrate ENLYFQN,area with substrate ENLYFQY,area with substrate ENLYFQF,area with substrate ENLYFQL,area with substrate ENLYFQV,area with substrate ENLYFQE,area with substrate ENLYFQQ
K7A,0.103,0.0964,0.0584,0.072,0.0704,0.0695,0.102,0.0984,0.0547,–,–,–,–,–,–,–,–,–,–
S18P,0.0878,0.0821,0.0486,0.0578,0.0809,0.0579,0.0754,–,–,0.0491,0.0657,0.0691,0.0547,0.063,–,–,–,–,–
E189I,0.106,0.0891,0.0514,0.0563,–,0.0677,0.0961,0.0604,–,0.0671,0.076,0.0854,0.0566,–,0.084,0.0547,0.0612,–,–
R204N,0.103,–,0.055,–,0.0562,0.07,0.104,0.0701,0.077,0.0721,0.0887,0.0743,0.0788,0.0809,0.0746,0.0674,0.0648,0.0508,–
S26V,0.0701,–,0.0587,0.0609,0.0591,0.0549,0.0785,0.0537,0.0592,0.0521,0.0666,0.0841,0.0674,–,–,0.0694,–,0.0692,0.0499
N45Q,0.0671,0.0757,–,0.055,0.172,0.0682,0.0608,0.0576,0.053,–,0.0533,0.0561,0.0723,0.0712,–,0.0563,–,–,0.0638
H21K,0.109,0.0973,0.0589,0.0577,0.0491,0.0581,0.0946,0.0635,0.0741,–,0.0838,0.083,0.0623,0.0802,–,0.0786,0.0777,0.0519,–
G166T,0.0271,0.166,0.0381,0.0508,–,0.048,0.047,–,–,–,0.0702,0.048,0.0483,0.0525,–,–,0.0465,–,–
P94E,0.119,–,0.0629,0.0717,–,0.0593,0.102,0.0663,–,0.127,0.0631,0.102,0.0854,0.081,–,0.0612,0.0813,–,–
I85C,0.0926,–,0.0668,–,0.0441,0.0573,0.0797,0.0601,0.0581,0.0614,0.0683,0.0685,0.0436,0.0586,0.081,0.051,–,–,–
L205N,0.0671,0.0714,–,0.0672,–,0.0491,0.0748,0.0556,–,–,–,–,–,–,–,–,–,–,–
A232P,0.124,0.102,0.0604,0.0785,–,0.0574,0.114,0.0771,–,–,–,0.071,0.0771,0.11,0.0706,0.0669,–,–,–
Q197C,0.148,–,0.0436,0.062,–,0.0555,0.11,0.0683,0.0675,–,–,0.107,–,–,–,0.0593,0.0456,–,–
S4K,0.175,0.128,0.0596,0.107,–,0.0562,0.133,–,0.0659,–,0.112,0.131,0.105,–,–,0.0754,0.1,–,–
Q105N,0.0994,0.136,0.0518,–,0.0555,0.0613,0.114,0.067,0.0624,0.0804,0.0864,0.105,0.0857,0.0769,0.0825,0.0629,0.0494,–,–
K100W,0.0924,0.0847,–,–,0.0561,0.0605,0.0982,0.0662,0.0814,0.0521,0.0748,–,–,0.0602,0.0892,–,0.0686,–,0.0713
P225W,0.0838,–,0.063,–,0.0512,0.0515,0.0902,–,0.0521,0.0596,0.0784,–,–,–,–,–,0.03,–,0.082
S32N,0.0927,0.0684,0.0578,0.0647,0.0458,0.0704,0.0883,0.0449,0.064,0.0696,–,0.0758,0.0565,–,0.0985,0.074,0.0603,–,–
E103K,0.0929,–,–,–,0.0688,0.0507,0.0885,0.0609,0.0604,–,0.109,0.0823,0.0684,0.0723,0.0681,–,–,–,–
K230G,0.125,0.087,0.0526,0.0753,–,0.0613,0.107,–,0.0649,0.0877,0.0811,–,0.0875,0.0891,0.075,–,0.0689,–,–
I110H,0.0614,0.059,0.0707,0.0536,0.0449,0.0514,0.0584,0.0619,0.0475,0.0749,0.0433,0.0367,0.0579,0.0624,–,0.0704,–,–,–
K185P,0.104,–,–,0.0633,–,0.0623,0.113,0.0679,–,0.0872,–,–,–,0.0976,–,0.0605,–,–,–
T44Q,0.0452,0.0449,0.0518,0.0544,0.0389,0.0416,0.0431,0.0555,0.0479,0.0392,–,0.0355,0.0403,0.0559,0.0379,0.0357,0.0341,–,0.0476
D91C,0.164,0.108,0.0636,–,0.0595,0.0648,0.0998,0.0664,0.0616,–,–,0.0536,–,–,0.0565,0.0411,0.0652,–,–
V217H,0.057,0.0643,0.0616,0.0456,–,–,0.0588,0.0546,–,0.0594,–,0.0611,–,–,–,0.0558,0.063,0.06,–
T31G,0.108,0.0684,0.0758,0.0587,0.0545,0.0538,0.0846,0.0631,0.0947,0.0726,0.0808,0.0976,0.0723,0.0822,0.0706,0.0704,0.0726,–,0.0779
T31C,0.117,0.119,0.0713,0.0676,–,0.0555,0.114,0.0757,0.0694,–,0.0778,0.104,0.086,–,0.108,0.0678,0.0855,–,0.0767
